The values below come from the supplement of paper PMC10126150.

Sequences with one replicate were seen in a single cluster, so their values are uncertain.

This data set has as its system ATP. Briefly: switch fluorescence ratio, 500 uM ATP over buffer (Cy3 cluster intensity, sum of 5 cycles each) (fold (ratio)); higher = stronger signal-on switching upon ATP binding; sequences stand for … in TCGTCGGCAGCGTCAGATGTGTATAAGAGACAGTTTTTTTTTTTTTTTTTTTTTTTTT…TC. The following applies: aptamer strand: ATP DNA aptamer (quencher-CACCTGGGGGAGTATTGCGGAGGAAGG + anchor), 100 nM annealed; ATP concentration: 500 uM; one replicate. The gist of the method: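 Five buffer/ATP imaging cycles were run on Cy3-labelled switching-strand clusters on a modified Illumina MiSeq flow-cell, with NaOH stripping and re-annealing between cycles. In each cycle, clusters annealed to 100 nM quencher-labelled ATP aptamer were imaged in selection buffer, then after 15 min with 500 uM ATP at 22 °C. Per cluster, the fluorescence ratio is summed target-cycle over summed buffer-cycle Cy3 intensity, averaged per switch-domain sequence. Only clusters within 100-1000 RFU were kept.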
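Note: ATP exposure 15 min at 22 °C before imaging.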

Consider GTTATCGGCA, for which the switch fluorescence ratio amounted to 0.964.

For TCGCATTGAT, the switch fluorescence ratio was 1.32.

Consider CCAATGTTTA, for which the switch fluorescence ratio stood at 0.999.

For GTCTCGCGCA, the switch fluorescence ratio turned out to be 1.17.

As to CTCAGTTGTT, the switch fluorescence ratio was determined as 1.

Take CAGTTGTTGT: the switch fluorescence ratio amounted to 0.949.

Regarding GACACGAGTA, the switch fluorescence ratio is 1.02.

As to TCTGTATGAG, the switch fluorescence ratio amounted to 1.03.

As for TCACGTAGCG, the switch fluorescence ratio was determined as 1.11.

In the case of GTCCTTTCGA, the switch fluorescence ratio was determined as 1.1.

As to TGATGCGGCC, the switch fluorescence ratio was 1.02.

Take CGTCAGGTAC: the switch fluorescence ratio worked out at 1.7.

On to CGGTCAGCCA, for which the switch fluorescence ratio came to 1.

As for CGCGTCTTCG, the switch fluorescence ratio amounted to 0.937.

Regarding CTCCTGAAAT, the switch fluorescence ratio came out at 1.24.

Regarding TCTCGCTGGA, the switch fluorescence ratio was found to be 0.985.

In the case of TTAATGTGTG, the switch fluorescence ratio was 0.947.

AGGATGGCT: the switch fluorescence ratio was 0.986.

With GGGCACAAAG, the switch fluorescence ratio came to 1.61.

Take CTGTCTTCAA: the switch fluorescence ratio was 1.03.

Turning to ATAGGGGTCC, the switch fluorescence ratio was 0.978.

For the sequence TCGAATCGTG, the switch fluorescence ratio stood at 0.977.

ATCGACTTCG: the switch fluorescence ratio came to 1.

With TGTAGGGCCC, the switch fluorescence ratio came to 0.956.

As to TACTGTCCGG, the switch fluorescence ratio came to 1.02.

For the sequence CTGGCAGTCT, the switch fluorescence ratio came out at 0.984.

Take CGATTTCATG: the switch fluorescence ratio was 0.979.

With GATGTGAACT, the switch fluorescence ratio stood at 1.03.

On to AGATAGTCTG, for which the switch fluorescence ratio was 1.

Consider TAAGTCTCAT, for which the switch fluorescence ratio was found to be 0.987.

Consider TTGAGTTCA, for which the switch fluorescence ratio stood at 1.02.

ATGCGGTCCA: the switch fluorescence ratio stood at 0.967.

Regarding TAGGTAGCAA, the switch fluorescence ratio was 2.91.

As to GCAATCCCAG, the switch fluorescence ratio was 2.6.

Take GAATAGCCCG: the switch fluorescence ratio was 0.964.

Consider GGGGTGAACA, for which the switch fluorescence ratio came out at 0.945.

ATACTCACAC: the switch fluorescence ratio amounted to 1.37.

In the case of AGCATGAGAA, the switch fluorescence ratio turned out to be 1.04.

Turning to CGCTACTGCA, the switch fluorescence ratio worked out at 1.07.

With TCTGATTCCC, the switch fluorescence ratio turned out to be 1.01.

CAGACGGGTA: the switch fluorescence ratio was determined as 1.05.

TTAATTGAAC: the switch fluorescence ratio was found to be 0.977.

Consider GGAAAGGGAC, for which the switch fluorescence ratio turned out to be 0.989.

On to ATAAGCTCGA, for which the switch fluorescence ratio came to 1.01.

Consider TAAAAGAACG, for which the switch fluorescence ratio amounted to 1.14.

CTTAAGCCTA: the switch fluorescence ratio was found to be 0.968.

With CGCAGGGTC, the switch fluorescence ratio is 1.41.

Turning to AATTGTAATC, the switch fluorescence ratio amounted to 1.

Turning to TAAATGGAGC, the switch fluorescence ratio turned out to be 1.02.

On to CTGCTGGGCG, for which the switch fluorescence ratio came to 1.04.

For CATCCTTGAC, the switch fluorescence ratio came out at 1.08.

With TACGGTAGGG, the switch fluorescence ratio is 1.09.

On to ATCTTAACAG, for which the switch fluorescence ratio is 1.01.

On to TATGTTCGCG, for which the switch fluorescence ratio was found to be 0.956.

As to GTCGGCAGGA, the switch fluorescence ratio amounted to 0.967.

In the case of GGGGGTAGG, the switch fluorescence ratio was found to be 1.1.

ATGATATATG: the switch fluorescence ratio was 1.05.

As to TAAATAAAC, the switch fluorescence ratio worked out at 0.983.

With ATCAATAAGG, the switch fluorescence ratio was determined as 0.992.

Take GTACGCTAAG: the switch fluorescence ratio was determined as 1.21.

As for ATGAGCACGT, the switch fluorescence ratio stood at 0.981.

Turning to GCAAGAAGCG, the switch fluorescence ratio turned out to be 1.02.

Take CATGTTGCCG: the switch fluorescence ratio was determined as 1.01.

With CTGTTCTCTG, the switch fluorescence ratio worked out at 0.996.

Take TCGGACATCG: the switch fluorescence ratio was determined as 1.03.

In the case of AGCTAGGGTA, the switch fluorescence ratio was found to be 0.994.

In the case of TTCGCGTTT, the switch fluorescence ratio worked out at 1.03.

As to CGGCTCTAGT, the switch fluorescence ratio came out at 1.02.

On to TTCCGTGGGC, for which the switch fluorescence ratio stood at 1.2.

On to ATAGACAGAA, for which the switch fluorescence ratio is 1.03.

Consider TTTTGAGTGC, for which the switch fluorescence ratio worked out at 1.13.

With CTCGCTCATA, the switch fluorescence ratio came out at 1.28.

For GATATGCGAG, the switch fluorescence ratio stood at 0.975.

With GAGGAGCTT, the switch fluorescence ratio was 1.08.

Consider TTACGGAAAG, for which the switch fluorescence ratio came out at 1.03.

For the sequence CAATCACTTG, the switch fluorescence ratio came out at 1.06.

On to CGTTATCGGG, for which the switch fluorescence ratio amounted to 0.989.

Regarding GAGTTATAGG, the switch fluorescence ratio was 1.02.

For the sequence CCTTCTCTTT, the switch fluorescence ratio turned out to be 1.24.

With GCTTACGAAC, the switch fluorescence ratio is 1.57.

With TGCTCTCGAA, the switch fluorescence ratio amounted to 1.07.

As to ACCTTGTGGC, the switch fluorescence ratio was 1.05.

Turning to TAACTTCGCA, the switch fluorescence ratio is 2.2.

For the sequence ATGTGTCTCT, the switch fluorescence ratio amounted to 0.989.

For the sequence TCGAGGGACT, the switch fluorescence ratio was 1.

Turning to TCGCAGATGT, the switch fluorescence ratio came out at 1.03.

Turning to GGCAACTTGG, the switch fluorescence ratio came to 1.

With CTCTACAAGC, the switch fluorescence ratio came to 1.92.

As to GCTTTCCGTA, the switch fluorescence ratio worked out at 0.995.

Regarding AGCATGAAGC, the switch fluorescence ratio stood at 1.

With GTTCCGATTT, the switch fluorescence ratio stood at 1.

For TAATGTGCAT, the switch fluorescence ratio is 1.

Turning to TAATTGTTCG, the switch fluorescence ratio came out at 1.04.

Consider GTGTGCAGAG, for which the switch fluorescence ratio was 1.02.

On to CCAACGACTA, for which the switch fluorescence ratio turned out to be 1.57.

With TGAGTTCGTT, the switch fluorescence ratio was determined as 1.01.

With AGGGGTTCC, the switch fluorescence ratio was found to be 1.01.

As for GGCGCGCATC, the switch fluorescence ratio was 0.975.

As to GGAATATGGA, the switch fluorescence ratio worked out at 0.979.

Consider GAGGACATTG, for which the switch fluorescence ratio was 1.02.

In the case of GGTGTGGAGT, the switch fluorescence ratio was determined as 1.23.

With GAGGGTCAG, the switch fluorescence ratio turned out to be 1.

Take AGTGGAGAAC: the switch fluorescence ratio was 1.03.

For the sequence TGGCCTTAGT, the switch fluorescence ratio turned out to be 1.01.

Regarding TTGCCAGATG, the switch fluorescence ratio stood at 1.06.

Turning to GTCCCCGTGC, the switch fluorescence ratio was determined as 1.39.

With AAGCAGCTAT, the switch fluorescence ratio came to 3.

Consider AAAGGCACTT, for which the switch fluorescence ratio turned out to be 1.04.

As for GCCGGGGAAG, the switch fluorescence ratio was 0.977.

In the case of GTAAGTACTT, the switch fluorescence ratio came to 1.03.

In the case of AATTTGCTTG, the switch fluorescence ratio is 1.04.

Turning to ACAGGTAGTC, the switch fluorescence ratio was 1.05.

In the case of TGACCCTAAT, the switch fluorescence ratio is 1.02.

With AACTAACCCC, the switch fluorescence ratio came to 1.16.

Regarding GGTTTAACAC, the switch fluorescence ratio was determined as 1.02.

As to TGACTATATA, the switch fluorescence ratio came to 1.03.

In the case of GTGGGAAATG, the switch fluorescence ratio came out at 1.02.

AAAAAGTGGA: the switch fluorescence ratio worked out at 1.09.

As to ACAATTCGTA, the switch fluorescence ratio turned out to be 1.02.

In the case of ACGAGCACGA, the switch fluorescence ratio was 1.27.
